Here are results for 82 molecules from PubChem BioAssay AID1346428 (National Center for Advancing Translational Sciences (NCATS), 2018).

Values joined by “and” are separate entries in the source; they are usually repeats but may differ in a detail not shown here. Equal values may be shown once. In all, about 48,000 compounds went through this assay and about 1,200 (2.5%) were called active. Roughly 2% stayed inconclusive and do not appear here.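 Rule for the calls: active = activation of at least 60% and not above a set upper limit (about 1 call in 100 departs from these limits); inconclusive = activation of 40% to 60%, or above that upper limit; inactive = activation under 40%.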 Some of the results follow.

Sequence of UniProt O75388 (O75388 whole entry, looked up, the tested form may be a part): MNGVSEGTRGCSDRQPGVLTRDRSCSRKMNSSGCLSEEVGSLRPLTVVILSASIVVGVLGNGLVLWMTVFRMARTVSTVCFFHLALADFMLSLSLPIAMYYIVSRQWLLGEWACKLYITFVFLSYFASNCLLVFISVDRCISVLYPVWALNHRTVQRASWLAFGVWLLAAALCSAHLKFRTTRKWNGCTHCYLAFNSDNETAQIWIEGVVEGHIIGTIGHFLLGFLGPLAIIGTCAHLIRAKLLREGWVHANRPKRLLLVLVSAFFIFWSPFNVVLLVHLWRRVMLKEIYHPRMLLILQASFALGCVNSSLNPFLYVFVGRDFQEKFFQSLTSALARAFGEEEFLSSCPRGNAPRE

This experiment addresses Probable G-protein coupled receptor 32 (Homo sapiens) (UniProt O75388). The experiment is described as follows: qHTS for Agonists of Human Resolvin D1 Receptor DRV1. Note: 0% is about no effect. The following applies: CHO-K1 GPR32 beta-arrestin PathHunter luminescence, 90 min; at 76.9 µM; active compounds read high; zero percent set by DMSO-only wells. In a few lines:
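GPR32 activation in stably transfected CHO-K1 cells, detected as beta-arrestin recruitment by enzyme-fragment complementation. Compound exposure: 90 min, 37 °C.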
On the technique in general: In qHTS, concentration-response curves come from the screen itself.
For the molecule `COc1ccc(-c2nc3sc(CCNC(=O)C(=O)Nc4cc(F)ccc4F)c(C)n3n2)cc1`, the activation was inactive: -13%.

With `COc1ccc2cc3cc(C(=O)N4CCN(c5cccc(C(F)(F)F)c5)CC4)sc3nc2c1`, the activation is inactive: 4.15%.

Regarding `COc1cc([N+](=O)[O-])ccc1NC(=O)N1CCC2(CC1)Nc1ccccc1-n1cccc12`, the activation is inactive: -35.4%.

Turning to `CCn1cc(C(=O)NCCN(CC(C)C)CC(C)C)c(=O)c2cc(S(=O)(=O)N(C)C3CCCCC3)ccc21`, the activation was inactive: 7.16%.

Turning to `Cc1cccc(CCNC(=O)c2cc3c(=O)[nH]c4ccc(C)cc4c3s2)c1`, the activation was inactive: -9.74%.

Regarding `Clc1ccc2c(c1)CCc1cccnc1C2=C1CCNCC1`, the activation was inactive: 6.93%.

As for `COc1ccccc1CNc1nc2ccccc2c2nc(-c3cccc(C)c3)nn12`, the activation is inactive: -7.28%.

Regarding `COc1ccc(NC(=O)c2nnn(CC(=O)Nc3cccc(C)c3C)c2N)c(OC)c1`, the activation was inactive: -7.22%.

With `CCOCCCn1c(SCC(=O)NCc2ccccc2)nc2c(sc3ccccc32)c1=O`, the activation was inactive: 33.9%.

In the case of `Cn1c(=O)n(C)c2cc(N3CCOCC3)c(NC(=O)c3ccc(C(C)(C)C)cc3)cc21`, the activation was inactive: 37.3%.

With `CCCCOc1ccccc1Cn1c(=O)sc2ccccc21`, the activation is inactive: -29.6%.

`O=C1NCC2(CCN(CCc3ccccc3)CC2)O1`: the activation was inactive: 30.8% and inactive: 1.81%.

As to `CCOc1ccc(C(=O)Nc2cccc(NC(=O)c3ccc(Cl)cc3Cl)c2)cc1`, the activation is inactive: -4.92%.

For the molecule `Cc1cccc(NC(=O)CN(C)S(=O)(=O)c2ccc3c(c2)CCC(=O)N3)c1C`, the activation is inactive: 40.4%.

Regarding `CSc1ccc(CNC(=O)c2sc3ncnc(N(C)C4CCCCC4)c3c2C)cc1`, the activation is inactive: -19.3%.

Consider `Cc1cccc(C(=O)N2c3ncnn3C3(CCCCC3)[C@@H]3CCCC[C@@H]32)c1`, for which the activation is inactive: -2.57%.

Take `Cc1ccc(Nc2nc3ccccc3nc2-n2nc(C)cc2C)c(Cl)c1`: the activation is inactive: -22.4%.

Regarding `CCc1cccc(N2C(=O)CS(=O)(=O)C23C(=O)N(Cc2ccccc2)c2ccc(C)cc23)c1` (configuration not stated), the activation is inactive: -9.05%.

`Cc1c(C(=O)Nc2ccc(F)cc2)oc2ccc(S(=O)(=O)N3CCCCCC3)cc12`: the activation is inactive: 4.37%.

As for `CCOc1ccc(CN2C(=O)C(=O)c3cccc(C)c32)cc1OC`, the activation is inactive: -81.6%.

Turning to `Cc1cccc(Nc2cc(C)nc(-n3nc(C)cc3C)n2)c1`, the activation was inactive: -20.8%.

As for `CCOC(=O)c1cccc(NS(=O)(=O)c2ccc(-c3coc(C)n3)cc2)c1`, the activation was inactive: 30.7%.

With `COC(=O)c1ccc2c(=O)n(CCc3ccc(S(N)(=O)=O)cc3)c(SCC(=O)C(C)(C)C)nc2c1`, the activation is inactive: 20.7%.

Take `COc1ccc(-c2cc(C(F)(F)F)n3ncc(-c4ccccc4)c3n2)cc1`: the activation was inactive: -15.1%.

With `COc1cc2c(cc1NC(=O)COc1ccc(Br)cc1)oc1ccccc12`, the activation is inactive: -5.24%.

Turning to `Cc1cc(C)c(NC(=O)C2CCN(C(=O)N3CCOc4ccccc43)CC2)c(C)c1`, the activation was inactive: 8.8%.

With `O=C(NCc1ccccc1)c1ccc(CS(=O)(=O)c2c(Cl)cccc2Cl)o1`, the activation is inactive: 19.2%.

As for `COc1ccc(OC)c(CCNC(=O)CCCn2c(=O)c3cccn3c3cccnc32)c1`, the activation was inactive: -20.2%.

`COc1ccc(CNC(=O)c2cnn(-c3ccccc3)c2-n2cccc2)cc1OC`: the activation was inactive: 16.9%.

In the case of `Cc1ccc(NC(=O)Cn2nc(C)c3nn(-c4ccc(Cl)cc4)c(C)c3c2=O)cc1F`, the activation was inactive: -14.1%.

As to `COc1ccc(N2CCN(C(=O)CSc3nc(-c4ccccc4)no3)CC2)cc1`, the activation was inactive: 22.5%.

Regarding `COc1ccc(-n2nc3c(N4CCC(C(=O)NC5CCCCC5)CC4)nnc(C)c3c2C)cc1`, the activation was inactive: 1.24%.

Take `COc1ccc(-c2n[nH]c3c2C(c2ccccn2)N(C)C3=O)cc1` (configuration not stated): the activation was inactive: -12.9%.

With `Cc1cccc(C(=O)Nc2ccc3nc(SCC(=O)N4CCCC4)sc3c2)c1`, the activation was inactive: -13%.

On to `O=C(CSc1nc(=O)[nH]c2c1CCC2)Nc1cc(C(F)(F)F)ccc1Cl`, for which the activation is inactive: -5.26%.

For the molecule `Cc1ccc(NC(=O)c2nc(S(=O)(=O)Cc3ccc(F)cc3)ncc2Cl)cc1C`, the activation was inactive: -26.9%.

Turning to `CCOc1ccc(OCC)c(NC(=O)CN(C)S(=O)(=O)c2ccc3[nH]c(=O)oc3c2)c1`, the activation was inactive: -2.46%.

In the case of `CCOC(=O)c1[nH]c(C)c(CCC(=O)N2CCN(c3cc(C)ccc3C)CC2)c1C`, the activation is inactive: -15.8%.

`Cc1ccc2oc(=O)c3cnn(CC(=O)N4CCN(c5cccc(Cl)c5)CC4)c3c2c1`: the activation is inactive: 2.03%.

As for `COc1cc(CNC(=O)c2ccc(NC(=O)N3CCCCc4ccccc43)cc2)cc(OC)c1OC`, the activation was inactive: 1.67%.

Take `Cc1cc(C(=O)NCCc2ccc(Cl)cc2)c2c(C)nn(-c3ccccc3)c2n1`: the activation was inactive: 0.134%.

As to `CC(=O)[C@@]1(O)CC[C@H]2[C@@H]3CCC4=CC(=O)CC[C@]4(C)[C@H]3CC[C@@]21C`, the activation is inactive: -1.3% and inactive: -7.36%.

Regarding `O=C(c1cccs1)N1CCCc2cc(NS(=O)(=O)c3cc(F)ccc3F)ccc21`, the activation is inactive: -17.9%.

On to `Cc1ccc(OCC(=O)NCC(=O)OCc2cc(=O)n3nc(CC(C)C)sc3n2)cc1`, for which the activation is inactive: -4.73%.

Take `CCc1ccccc1NC(=O)C1CCCN(S(=O)(=O)c2ccc3[nH]c(=O)ccc3c2)C1` (configuration not stated): the activation was inactive: -15.2%.

In the case of `O=C(NCCc1ccc(Cl)cc1)c1cnc2sc(N3CCCC3)nn2c1=O`, the activation was inactive: -0.128%.

Regarding `CC(=O)c1cccc(NC(=O)CCn2nc(C)c(S(=O)(=O)N3CCCCC3)c2C)c1`, the activation was inactive: -13%.

As for `CCCC(=O)N1c2ccccc2-c2nnc(SC)nc2OC1c1sccc1C` (configuration not stated), the activation was inactive: -15.4%.

As for `CC(Oc1ccccc1)C(=O)Nc1c(C(=O)Nc2cccc(F)c2)oc2ccccc12` (configuration not stated), the activation was inactive: -15.4%.

`Cc1ccc(C)c(N2CCN(S(=O)(=O)c3cc(C(=O)Nc4ccccc4C(F)(F)F)ccc3F)CC2)c1`: the activation was inactive: -22.2%.

Consider `CN(C)c1ccc(CNC(=O)Cn2c(-c3cccs3)cc3cc(Cl)ccc32)cc1`, for which the activation is inactive: -14.1%.

For the molecule `CCOC(=O)c1c(NC(=O)COc2ccc(Cl)cc2Cl)sc2c1CCCCC2`, the activation is inactive: 32.4%.

For the molecule `CCc1ccc(S(=O)(=O)Nc2cc3c(cc2C)n(C)c(=O)c(=O)n3C)cc1`, the activation was inactive: 16.7%.

Consider `COc1ccccc1NC(=O)N1CCN(c2nnc(C)c3c(C)n(-c4ccccc4)nc23)CC1`, for which the activation is inactive: -4%.

As to `Nc1c(-c2nc(-c3ccccc3Cl)no2)nnn1-c1ccccc1C(F)(F)F`, the activation is inactive: -4.01%.

`CC1=C(c2ccc(C)c(C)c2)S(=O)(=O)N=C1N1CCC(C(=O)NCc2ccc(N(C)C)cc2)CC1`: the activation is inactive: 4.42%.

On to `CCN(CC)S(=O)(=O)c1ccc(NC(=O)c2c(C)oc3ncnc(N4CCCCC4)c23)cc1`, for which the activation is inactive: -0.846%.

Turning to `O=c1c2oc3ccccc3c2n(Cc2ccccc2F)c(=O)n1Cc1ccc2c(c1)OCO2`, the activation is inactive: -13.7%.

On to `CCN(CC)CCN(C(=O)c1ccco1)c1nc2ccc(F)cc2s1`, for which the activation is inactive: 2.28%.

Turning to `Cc1ccc(-c2nnc(SCC(=O)NCc3ccccc3)o2)cc1`, the activation was inactive: -8.76%.

For `COc1ccc(CNC(=O)CC(C)CC2=NS(=O)(=O)c3ccccc3N2)cc1` (configuration not stated), the activation is inactive: 4.88%.

As for `Cc1ccccc1Cn1c(=O)n(Cc2ccco2)c(=O)c2sc3ccccc3c21`, the activation is inactive: -3.45%.

In the case of `CCOc1ccc(S(=O)(=O)Nc2ccc3c(c2)CCCN3C(=O)c2cccs2)cc1`, the activation is inactive: -6.04%.

On to `CCOc1ccc(CCNC(=O)C2Cc3ccccc3N2C(=O)CC)cc1` (configuration not stated), for which the activation is inactive: 0.325%.

`CCOC(=O)c1ccc(Nc2c(-c3ccc(OC)cc3)nc3nc[nH]n23)cc1`: the activation is inactive: -30.5%.

As to `COc1ccccc1CNC(=O)Cc1c(C)c2cc3c(C)coc3c(C)c2oc1=O`, the activation is inactive: -17.5%.

Take `CCOC(=O)c1cc2c(=O)n3ccccc3nc2n(CCCOC)c1=NC(=O)c1c(-c2c(F)cccc2Cl)noc1C`: the activation is inactive: -22.4%.

Consider `CCC(=O)N1CCc2cc(CNC(=O)Nc3cc(OC)c(OC)c(OC)c3)ccc21`, for which the activation was inactive: 17.5%.

In the case of `CCN(CC)C(=O)C1=C(C)Nc2nc3ccccc3n2C1c1ccccc1F` (configuration not stated), the activation was inactive: -4.08%.

Turning to `COc1ccc(Cl)cc1NC(=O)Cn1c(=O)n(-c2ccc(C)cc2)c(=O)c2ccc(C(=O)NCc3ccccc3Cl)cc21`, the activation is inactive: -2.06%.

Take `O=C(Cc1ccc(NC(=O)N2CCCCc3ccccc32)cc1)NCc1cccc(Br)c1`: the activation is inactive: -8.19%.

For the molecule `Cc1cccc(N2CCN(C(=O)Cn3c(C)c4cnn(-c5ccccc5)c(=O)c4c3C)CC2)c1C`, the activation is inactive: -3.74%.

Regarding `Cc1nnc(SCc2cc(=O)c3cc(F)ccc3[nH]2)n1C`, the activation was inactive: -15.5%.

`COc1ccc(CNC(=O)C(=O)NCC(c2ccco2)S(=O)(=O)c2cccs2)cc1` (configuration not stated): the activation is inactive: -11.5%.

Take `CCCCn1c(SCc2ccccc2C)nc2ccsc2c1=O`: the activation is inactive: -29.6%.

Take `CC1=C(C#N)C(NC(=O)c2ccccc2)(C(F)(F)F)C(=O)N1` (configuration not stated): the activation is inactive: -8.62%.

For the molecule `C=C(C)Cn1c(SCC(=O)c2ccc(Br)cc2)nc2sc3c(c2c1=O)CCCC3`, the activation was inactive: -5.76%.

Regarding `Cc1ccc(NC(=O)c2ccc3c(O)c(S(=O)(=O)c4ccc(Cl)cc4)c(=O)[nH]c3c2)cc1`, the activation was inactive: -17.9%.

`Cc1ccc(NS(=O)(=O)c2ccc3c(c2)CCN3C(=O)C2CC2)c(C)c1`: the activation was inactive: 40.2%.

Turning to `CC(C)c1ccccc1NC(=O)C(Cc1c[nH]c2ccccc12)NC(=O)OC(C)(C)C` (configuration not stated), the activation is inactive: -31.9%.

As for `Cc1ccc(S(=O)(=O)c2nc(-c3cccs3)oc2SCc2ccc(F)cc2)cc1`, the activation is inactive: -8.36%.

On to `Cc1ccc2nc(NC(=O)CSc3cc(C)[nH]c(=O)n3)sc2c1`, for which the activation is inactive: -2.3%.
